{"source": "PubChem BioAssay AID938", "about": "(National Center for Advancing Translational Sciences (NCATS), 2007)", "note": "In all, about 73,000 compounds went through this assay and about 1,800 (2.5%) were called active. Inconclusive means that the source gave no clear call. Such entries were picked first, then a sample of the others. Calls come from the whole dose curve; as a rule, active = well fitted activation curve with a large enough effect; inconclusive = small, poorly fitted or top-dose-only effect; inactive = no such curve, though single readings can be large or run the other way. Potencies of inconclusive entries are left out as doubtful fits. Potency is the fitted concentration of half-maximal effect; tags give direction and shape of the fitted curve."}
{"assay": "qHTS Assay for Agonists of the Thyroid Stimulating Hormone Receptor: Activators of Intracellular cAMP Concentrations in Parental HEK 293; note: nearly all actives have a fitted effect of over 55% in size; for activation: % of control where 0% means no effect", "details": "parental HEK293 CNG cAMP sensor, membrane potential fluorescence; activation: at 57.1 µM (top of the series) unless noted", "procedure,_shortened": "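Parental HEK 293 cells stably expressing a cAMP-gated CNG channel were loaded with membrane potential dye containing 100 uM RO 20-1724 for 60 min. Compound added for 30 min; depolarization read as fluorescence intensity at 590 nm.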"}
{"smiles": "CC1=C(C(=O)OCc2ccccc2)C(C2CC2)NC(=O)N1CCCCCC(=O)O", "note": "(configuration not stated)", "Potency": "active: 20 µM"}
{"smiles": "O=C(c1cccc(S(=O)(=O)N2CCOCC2)c1)N1CCOCC1", "Potency": "inconclusive [activator, partial curve]"}
{"smiles": "O=C(NC1CCN(Cc2nnnn2CCc2ccccc2)CC1)c1ccccc1F", "Potency": "inconclusive [activator, single point]"}
{"smiles": "N=c1n(CCO)c2ccccc2n1Cc1ccc(Cl)cc1", "Potency": "inactive"}
{"smiles": "COCCNS(=O)(=O)c1ccc2c(c1)C(=O)c1cc(S(=O)(=O)NCCOC)ccc1-2", "Potency": "inconclusive [activator, partial curve]"}
{"smiles": "Cc1cccc(-n2c(SCC(=O)Nc3nonc3C)nnc2-c2ccoc2C)c1", "Potency": "inconclusive [activator, partial curve]"}
{"smiles": "CC(=O)Nc1ccc(Cc2ccncc2)cc1", "Potency": "inconclusive [activator, single point]"}
{"smiles": "CCCCCC(=O)Nc1ccccc1N1CCN(c2ccccc2)CC1", "Potency": "inconclusive [activator, partial curve]"}
{"smiles": "CC1=C2C(CCS2(=O)=O)CC2(C1)C(=O)OC(C)(C)OC2=O", "note": "(configuration not stated)", "Potency": "inconclusive [activator, single point]"}
{"smiles": "COc1ccc(C)cc1S(=O)(=O)N1CCC(C)CC1", "Potency": "inconclusive [activator, partial curve]"}
{"smiles": "O=C(Nc1ccc2c(c1)OCCO2)C1CCCN1S(=O)(=O)c1ccc(Cl)cc1", "note": "(configuration not stated)", "Potency": "inactive"}
{"smiles": "COc1ccc(-c2nc3cnc(N(C)C)nc3n(CCc3ccccc3)c2=O)cc1", "Potency": "inactive"}
{"smiles": "CCOc1ccc2[nH]c(=O)c(CN(Cc3ccco3)C(=O)c3ccc(Br)cc3)cc2c1", "Potency": "inconclusive [activator, single point]"}
{"smiles": "CCc1ccc(N2CC(C(=O)OCC(=O)Nc3cc(C)on3)CC2=O)cc1", "note": "(configuration not stated)", "Potency": "inactive"}
{"smiles": "CCc1cc(C(C)=O)c(O)cc1OCCCCCC(C)(C)c1nn[nH]n1", "Potency": "active: 20 µM"}
{"smiles": "COc1ccc(-c2nc3cnc(N(C)C)nc3n(CCC#N)c2=O)cc1", "Potency": "inactive"}
{"smiles": "Oc1ccc2cccnc2c1", "Potency": "inactive"}
{"smiles": "CCCCOC(=O)Nc1nnc(COc2ccccc2)s1", "Potency": "inconclusive [activator, partial curve]"}
{"smiles": "Cc1ccc(OCc2nc(-c3ccccc3)no2)c(C)c1", "Potency": "inconclusive [activator, partial curve]"}
{"smiles": "N=c1c2c(n(Cc3ccccc3)c3c1CCC3)CCC2", "Potency": "inconclusive [activator, single point]"}
{"smiles": "Cc1ccccc1N=C(N)Nc1ccccc1C", "Potency": "active: 15.8 µM"}
{"smiles": "C=CCn1c(SCC(=O)NC2CCCCC2)nnc1C(C)NC(=O)c1cccs1", "note": "(configuration not stated)", "Potency": "inconclusive [activator, single point]"}
{"smiles": "Cc1ccc(Cc2nc(-c3cccc(C)c3)no2)cc1", "Potency": "inconclusive [activator, full curve, poor fit]"}
{"smiles": "O=C(c1ccccc1)c1ccc(N2CCCC2)cc1", "Potency": "inconclusive [activator, partial curve]"}
{"smiles": "CCOc1ccc(C2C=C(c3ccc(C)cc3)Nc3ncnn32)cc1", "note": "(configuration not stated)", "Potency": "active: 20 µM"}
{"smiles": "CCC12CCCN3CCC4(C(=C(C(=O)OC)C1)Nc1ccccc14)C32", "note": "(configuration not stated)", "Potency": "active: 25.1 µM"}
{"smiles": "CCCn1c(NC(=O)c2ccccc2)nc2ccccc21", "Potency": "inconclusive [activator, single point]"}
{"smiles": "c1ccc(CNCCN2CCNCC2)nc1", "Potency": "inconclusive [activator, single point]"}
{"smiles": "COc1ccc(NC(=O)N(C2CCCCC2)C2CCN(C(C)C)CC2)c(OC)c1", "Potency": "inconclusive [activator, single point]"}
{"smiles": "O=C(CN1CCOc2ccccc21)NC1CCCCCCC1", "Potency": "inactive"}
{"smiles": "COc1ccccc1-c1cncnc1Nc1ccc(F)cc1", "Potency": "inactive"}
{"smiles": "CC(C)OCCCNC(=O)c1cc2c(=O)n(C)c3ccccc3c2n1C", "Potency": "inconclusive [activator, single point]"}
{"smiles": "CCC/C=C(\\CCC)C(NC(=O)Oc1ccc(F)cc1)c1ccc(C(=O)OC)cc1", "note": "(configuration not stated)", "Potency": "inconclusive [activator, partial curve, poor fit]"}
{"smiles": "O=C1CC(c2ccco2)Cc2nc(Nc3nc(-c4ccccc4)c4ccccc4n3)ncc21", "note": "(configuration not stated)", "Potency": "inconclusive [activator, partial curve]"}
{"smiles": "COc1cc(C(=O)Nc2ccc(NC(=O)c3ccco3)nc2)cc(OC)c1OC", "Potency": "inconclusive [activator, single point]"}
{"smiles": "O=C(CSc1ccccc1C(=O)O)NCc1ccco1", "Potency": "inactive"}
{"smiles": "O=C(NCCc1ccccc1)c1cnn2c(C(F)F)cc(C3CC3)nc12", "Potency": "inconclusive [activator, partial curve]"}
{"smiles": "Cc1ccc(C2CC(c3ccco3)n3ncnc3N2)cc1", "note": "(configuration not stated)", "Potency": "inactive"}
{"smiles": "COc1ccc(CCNc2oc(COc3ccccc3F)nc2C#N)cc1OC", "Potency": "inconclusive [activator, single point]"}
{"smiles": "O=c1c(-c2cc(F)cc(F)c2)nc2cnc(N3CCNCC3)nc2n1CCc1ccccc1", "Potency": "inconclusive [activator, single point]"}
{"smiles": "COc1cc(C(=O)Nc2c(-c3ccccn3)c(=O)c3ccccc3n2C)cc(OC)c1OC", "Potency": "inactive"}
{"smiles": "CCOC(=O)COn1c2c(c3c4no[n+]([O-])c4ccc31)CCCC2", "Potency": "inconclusive [activator, full curve, poor fit]"}
{"smiles": "CCOc1ccc2[nH]c(S(=O)(=O)CC)nc2c1Cl", "Potency": "inconclusive [activator, single point]"}
{"smiles": "CCOC(=O)COc1nc(C)c(Br)c(OC)n1", "Potency": "inconclusive [activator, single point]"}
{"smiles": "O=C(O)c1ccccc1N[C@H](c1ccccc1)c1ccc2cccnc2c1O", "activation": "inactive: -1.69% [at 11.4 µM]"}
{"smiles": "Cc1ccc2occ(C(=O)c3ccco3)c(=O)c2c1", "Potency": "inconclusive [activator, single point]"}
{"smiles": "Cc1nn(-c2ccc(F)cc2F)c2c1-c1nc(N3CCCC3)ncc1CC2", "Potency": "inactive"}
{"smiles": "COc1ccc(CSc2nnnn2Cc2ccccc2)cc1OC", "Potency": "inconclusive [activator, single point]"}
{"smiles": "COC(=O)[C@@]1(Cc2ccc(F)cc2)[C@H]2c3cc(C(=O)N(C)C)n(CC4CC4)c3C[C@H]2CN1C(=O)c1ccccc1", "Potency": "active: 6.31 µM"}
{"smiles": "Cc1ccc(OCC(O)Cn2c(=N)n(CCN3CCCCC3)c3ccccc32)cc1", "note": "(configuration not stated)", "Potency": "inconclusive [activator, partial curve]"}
{"smiles": "COC(=O)c1ccc(COc2cc(O)c3c(c2)OC(C)(C)CC3=O)cc1", "Potency": "inconclusive [activator, single point]"}
{"smiles": "COc1cccc(-c2cc(=O)c3cc(O)ccc3o2)c1", "Potency": "inconclusive [activator, single point]"}
{"smiles": "CCCN1Cc2cccc(C(=O)Nc3cc(OC)cc(OC)c3)c2C1=O", "Potency": "inconclusive [activator, single point]"}
{"smiles": "COCCNc1ncnc2ccc(-c3ccccc3C)cc12", "Potency": "inconclusive [activator, full curve]"}
{"smiles": "CCN(CCCNC(=O)c1ccc(N2CCCC2=O)cc1)c1cccc(C)c1", "Potency": "inconclusive [activator, single point]"}
{"smiles": "O=C(COC(=O)c1c2c(nc3ccccc13)CCCC2)Nc1ccc2c(c1)OCO2", "Potency": "inconclusive [activator, partial curve]"}
{"smiles": "COc1ccc(-c2cc(C(=O)N3CCN(c4ccccn4)CC3)c3ccccc3n2)cc1", "Potency": "inactive"}
{"smiles": "CCc1c(C)nc2cc(-c3ccc(OC)c(OC)c3)nn2c1N1CCCC1", "Potency": "inconclusive [activator, single point]"}
{"smiles": "CC1Cc2nc(SCC(=O)N3CCc4ccccc43)n(C)c(=O)c2S1", "note": "(configuration not stated)", "Potency": "inconclusive [activator, single point]"}
{"smiles": "CCOC(=O)c1ccccc1NC(=O)CSc1nnc(COc2ccccc2)n1CC", "Potency": "active: 15.8 µM"}
{"smiles": "CN1CCN(c2cc3c(c4c2[nH]c2ccccc24)C(=O)CC(C)(C)C3)CC1", "Potency": "inactive"}
{"smiles": "c1cncc(C(c2nnnn2C2CCCC2)N2CCN(Cc3ccc4c(c3)OCO4)CC2)c1", "note": "(configuration not stated)", "Potency": "inconclusive [activator, single point]"}
{"smiles": "CCc1cccc(NC(=O)CCc2nc(-c3cccs3)no2)c1", "Potency": "inactive"}
{"smiles": "CC1CCc2c(C(=O)Oc3cccc(-n4cnnn4)c3)csc2C1", "note": "(configuration not stated)", "Potency": "inconclusive [activator, single point]"}
{"smiles": "CCOCC(=O)Nc1c(C(=O)Nc2ccccc2OC)oc2ccccc12", "Potency": "active: 25.1 µM"}
{"smiles": "O=C1NC(c2ccccc2Cl)Nc2ccccc21", "note": "(configuration not stated)", "Potency": "inconclusive [activator, single point]"}
{"smiles": "CC(C)N1CC(O)=C(c2ccccc2)C1=N", "Potency": "inconclusive [activator, single point]"}
{"smiles": "Cc1noc(C)c1C(=O)OCC(=O)Nc1ccccc1C(=O)NC(C)c1ccccc1", "note": "(configuration not stated)", "Potency": "inconclusive [activator, single point]"}
{"smiles": "COCC(=O)N1CCC2(CCN(Cc3ccc(C#N)cc3)CC2)CC1", "Potency": "inactive"}
{"smiles": "CCNc1ncc2nc(-c3ccccc3)c(=O)n(CCOC)c2n1", "Potency": "inconclusive [activator, partial curve, poor fit]"}
{"smiles": "COc1ccccc1NC(=O)CN1CCN(C2c3ccccc3-c3ccccc32)CC1", "Potency": "inconclusive [activator, single point]"}
{"smiles": "CCOc1ccccc1NC(=O)Cn1c(=O)n(CCC(=O)NC2CCCC2)c(=O)c2ccccc21", "Potency": "inconclusive [activator, single point]"}
